Measurements published in the RNAGym collection of RNA variant scans (doi:10.1073/pnas.2313332121).
This sample is rich in variants without activity.

B1: TPR 5TU (parent)
chain: GGAUCUUCUCGAUCUAACAAAAAAGACAAAUCUGCCACAAAGCUUGAGAGCAUCUUCGGAUGCAGAGGCGGCAGCCUUCGGUGGCGCGAUAGCGCCAACGUUCUCAACUAUGACACGCAAAACGCGUGCUCCGUUGAAUGGAGUUUAUCAUG

Variants of: B1
Experiment: polymerase ribozyme fitness, log enrichment relative to wild type (log ratio); higher = more active; in vitro selection for triplet polymerase activity
Method in brief: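 Both subunits of a heterodimeric triplet polymerase ribozyme were given their own mutant library, built by PCR and transcribed. Each library was annealed with a biotinylated primer, the partner subunit and triplets, incubated frozen at −7 °C, and its extended constructs gel-excised, captured on streptavidin beads and amplified by RT-PCR, all in one round done in triplicate. Fitness is the logarithm of genotype enrichment relative to wild-type enrichment, with replicates averaged by inverse-variance weighting. That logarithm is base 2, and Illumina-sequenced genotypes needed ≥10 input reads and ≥1 read per output.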

Polymerase ribozyme fitness (log ratio), ≤ -4.2:
G34U G58A U61A C87A U101G U102A G133U
G34U U53C G88A G92U G152A
G34U U55A A91G G94U C125A
G34U U55A C76U G80A
G34U U55A G58A C79U G81A G92A C105A A150U
G34U U55A U78A C85A A120C U130G U134A
G34U U56A C69A G86A C108U G141A U146A
C35A A39U U53A G83A G86A A91U
C35A A40G G59A G65A U82A G92A C103A
C35A A41C A52C G58A C96U A122G G126U
C35A A41C U77A G80A U148G
C35A C57U G68A C75A C87U C99A
C35A C69U C93U C125U
C35A C72G A73U U77G G92A G133C U148C
C35A C75G U77G C132G U151C
C35A C79A G80U G81A C85G C105G C116U
C35A C85U U104G C108A C114A U146A
C35A C87G C118U
C35A G42C C57G U78G C108G C129A C131A U139C
C35A G50C G86A A137G
C35A G68U C76G A106C
C35A G83A A98G C116G C132U U135G A137G
C35A U53A A107G G133C
C35A U55A A91C
C35A U55G A91G C95G A122U G136U
C35A U127G
C35A U148G
C35G A47C G50C C99A U151C
C35G A47C U55G C69G A73U A91G U111A G117C A142C
C35G A52C C95A C125G
C35G A73U G126U C132U
C35G A89G
C35G C51G A97G A98G
C35G C69A U78G A91G
C35G C79U
C35G C79U G80A A121C
C35G C93A C114G C118A
C35G C95G C131U G136A
C35G C96G
C35G C96G G136A G143A
C35G G50A A106C U109C
C35G G86U A122G G136A U139A U144A
C35G G92A A115C A142G
C35G U55A A60G U90C U101A A150G G152C
C35G U56A G68U G92U U148G
C35G U90G C96U C118U U139A G140A
C35G U102A A110U C129A G133C
C35U A37C U56A G83U C96G U101G A115C
C35U A40C A64U G67A C87U C132G G140U
C35U A41C A49C U55A C85A G86A U90G G117U
C35U A64C
C35U A64C C105G A121C U134G U144C
C35U A66G G74A C79A G83U C85A C95A U102G U104G
C35U A91U C93A C129G
C35U A107G U139C
C35U C54A U77C G86U C116U G117A
C35U C57U U90G C99U U101A C116G
C35U C69U C108A A113U
C35U C85U C87G C118U C123A G126U C149G
C35U C87A A107G
C35U C87A C123U
C35U C96U C105G G126C A142U
C35U G46A C87A C103U A115U
C35U G46A G48A G71U G86U C96U A98C U139A
C35U G50C C75U G84C C93U
C35U G50C C93G
C35U G58C C63U C93G C116G
C35U G59C A91U U135G
C35U G62A C99U
C35U G65A C95A A106C G126A U151G
C35U G74A G94C C114U A115U
C35U G80U C93A U111C
C35U G86A C93A A113C
C35U G94A A107G C125G
C35U U44A C95U A106U G126A
C35U U45G C75U U77A C79G C87G
C35U U53A G84C C99G G133C
C35U U53A U61A G68U
C35U U53G G86U C114U C132U U139C C149U
C35U U55A A66U C87U G126U U134A
C35U U55G U146G A147C
C35U U61G C85A G112U
C36A A37U C54G U56A G92C U102A
C36A A49G A52C A73G U77C G84A
C36A A52C G80A
C36A A107G G140U U146G
C36A A107U
C36A C75U A89G C93A C108G G136C
C36A C76A A119U
C36A C76U G83A
C36A C87U A97C A98U U145C
C36A C96U U104C
C36A C114A
C36A G42A C76A G86U G94A A98U
C36A G42A U78A G84A C95U U135G
C36A G50C A66U G92A
C36A G71C C79U C96A G126U G140C
C36A G86A
C36A G92U C103U G136U
C36A U45G A97G
C36A U56A G59U G67A G83A C85A G100C A107G C108U U111G
C36A U56C C85G A115U C123G
C36G A60G C79G C116U C118U G141C A150C
C36G A73G G86A G92A A97G U102G C108A C116A C118A A121U U134G
C36G G50A A66U G88U G94U C116G C149G
C36G G62A C69A
C36G G65C G88C A107G
C36G G92A C114U A120U G124A
C36G G94U A142G
C36G U61G C95G A138G
C36U A47C U56A C93G
C36U A47C U56A C93G U145G
C36U A52G C54A A73G G94U A138U
C36U C43U C57A G68A
C36U C57A C69A G117U G140A A150G
C36U C57U C85U U102A C108U
C36U C63U G83C G92A C99U
C36U C79A C105U
C36U C85U U102G C108U G136C
C36U C93G U148C
C36U C96A U102G
C36U G48U G74A U90G C93A
C36U G50C C85U U109A
C36U G71A A73G C85U
C36U G84A A107G
C36U G84U U111A C116U
C36U G94A C129U A150C
C36U U44A G46C C57A C87U
C36U U44C C76G C85A G112C C114U A120C G133C
C36U U45A A52G G86A C87A C93U A107U
C36U U53G G86A G141U
C36U U55G G83A C93G C108A
A37C A39C
A37C A40C G50C U56A C79U U135G
A37C A49C C63G A66U
A37C A49C C87A C103G C105U U146A
A37C A49C G83U C85A
A37C A49G C93A G133U
A37C A49G U56A C57A G71A
A37C A49U C63G A66G G88U
A37C A52G C63U G86A A138U U145A
A37C A64U C116U
A37C A66G C85A G141C
A37C A107C G152A
A37C C43U A52C G84A C129A G133U U146G
A37C C54A G86U G112C U135C A147C U151A
A37C C54U U56A G67C
A37C C57A U82C C87G G117A U130C
A37C C57G G62C C87A
A37C C72A C87G
A37C C75A C76U U144C
A37C C75A G84C A147U
A37C C79A C114A A138C
A37C C85G C95A U130G
A37C C93A U139C
A37C G42C A91U C95U A110U U135A A150U
A37C G42C G74C C85G C96A A97G U134A U148C
A37C G58C G70C C85G C149A
A37C G59A G92A C93A
A37C G59U A66G U90C
A37C G67U A73C U90C G94C G140U
A37C G68A G71C C85A A119U
A37C G71A C85G G100A C116G
A37C G74A A91G C95U U135G A150U
A37C G84A C87U G92U U102C
A37C G84A C93U U101A
A37C G84U C99U C103U G140C
